# Source: the supplement of paper PMC12645437, “Orthogonal IMiD-Degron Pairs Induce Selective Protein Degradation in Cells” (ACS Chemical Biology, 2025)
# Some of the results follow.
# Target: no compound (DMSO)
# Test: log2 fold change of degron read counts, EGFP-low vs EGFP+ sorted cells; higher = lower degron-EGFP level without compound (poor expression or instability)
# Settings: compound: DMSO control; 18 h
# 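Also: jurkat cells carrying a lentiviral library of mutant zinc finger degrons fused to EGFP plus mCherry, mCherry+ cells FACS sorted, degron abundance counted by next-generation sequencing.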
row,Sequence,log2 fold change of degron read counts
1,FWCNVCGATFTQKGNLLRHIKL,-0.763
2,LRCPICGFFCTQKGNLLRHIKL,2.47
3,FLCNQCGRQFTQKGNLLRHIKL,-0.847
4,FLCNICGATFTQKGNLLRHIKL,-1.28
5,FGCNVCGAVFTQKGNLLRHIKL,0.377
6,FTCPICGRGFTQKGNLLRHIKL,0.0992
7,LQCPICGFLCTQKGNLLRHIKL,0.753
8,FLCEQCGAYFTQKGNLLRHIKL,-0.84
9,LECEICGFLCTQKGNLLRHIKL,0.509
10,FECEQCGACFTQKGNLLRHIKL,-1.87
11,FQCSVCGHGFTQKGNLLRHIKL,-0.987
12,FSCNQCGHYFTQKGNLLRHIKL,0.742
13,FSCSVCGHWFTQKGNLLRHIKL,0.499
14,FLCPQCGASFTQKGNLLRHIKL,-1.04
15,LFCNQCGFMCTQKGNLLRHIKL,1.37
16,LRCNQCGFDCTQKGNLLRHIKL,0.174

row,Sequence,log2 fold change of degron read counts
1,FSCEICGASFTQKGNLLRHIKL,-1.54
2,FHCEICGRMFTQKGNLLRHIKL,-0.651
3,FSCNICGALFTQKGNLLRHIKL,-0.00873
4,FWCPVCGAAFTQKGNLLRHIKL,0.932
5,FQCSVCGHAFTQKGNLLRHIKL,-0.863
6,FCCPICGHNFTQKGNLLRHIKL,0.0154
7,FRCPQCGASFTQKGNLLRHIKL,-1.18
8,FCCPVCGAPFTQKGNLLRHIKL,0.709
9,FFCNICGALFTQKGNLLRHIKL,0.821
10,LGCEICGFSCTQKGNLLRHIKL,0.121
11,FSCEQCGAAFTQKGNLLRHIKL,-1.58
12,FYCDQCGAAFTQKGNLLRHIKL,-2.35
13,FNCNQCGATFTQKGNLLRHIKL,-0.701
14,FQCPVCGATFTQKGNLLRHIKL,-0.375
15,LLCNQCGFYCTQKGNLLRHIKL,1.73
16,FICEQCGAHFTQKGNLLRHIKL,-2.55
